# Data as given in PubChem BioAssay AID1956 (SRMLSC, 2009).
# The list shows a part of the results. These are further read-outs of the screen, such as a control signal, another cell line or another target. No call is given for them.
# Assay: enhancers of HSV replication in host cells, fold increase, host cell viability (AID 1956); also: tested in PC3 cells
# Details: HSV replication augmentation in cells; fold increase: measured here: primary screen fold increase 10 uM, at 10 µM, stronger effect = higher value; viability: measured here: host cell viability series, at 25 µM, stronger effect = lower value
Compound,fold increase,viability [%]
CC1=NN(c2ccc(C)c(C)c2)C(=O)C1C(c1cccc(O)c1)C1C(=O)N(c2ccc(C)c(C)c2)N=C1C (stereo not given),1.23,–
COc1ccc(Cl)cc1N1Cc2ccccc2C1,1.18,–
O=C1CNC(=S)N1CCc1ccc(Cl)cc1,1.39,101
CCOC(=O)c1c(NC(=O)CCC(=O)O)sc2c1CC(C)(C)OC2,1.52,94.1
COc1ccc(OC2C(=O)N(Cc3ccc4c(c3)OCO4)C2c2sccc2C)cc1 (stereo not given),1.4,73
CC(OC(=O)c1c2c(nc3ccccc13)/C(=C\c1ccc3c(c1)OCO3)CCC2)C(=O)Nc1ccc(S(N)(=O)=O)cc1 (stereo not given),3.06,–
CN1CCN(/N=C/c2ccc(-c3ccc([N+](=O)[O-])cc3Cl)o2)CC1,2.59,–
Cc1ccc(S(=O)(=O)NC2(C(F)(F)F)NC(=O)N(CCc3ccccc3)C2=O)cc1 (stereo not given),1.32,–
O=C(CSc1nnc(C2COc3ccccc3O2)o1)N1CCCCC1 (stereo not given),1.45,98.1
NS(=O)(=O)c1ccc(NC(=O)COC(=O)c2c3c(nc4ccccc24)/C(=C\c2ccc4c(c2)OCO4)CCC3)cc1,1.47,71.3
CN(Cc1ncc[nH]1)C(=O)CC1C(=O)NCCN1Cc1c(F)cccc1Cl (stereo not given),1.47,101
COc1cc(-c2cc(OC)c3c(C)oc(C)c3c(=O)c2)ccc1O,2.06,78.5
Cc1nnc(SCC(=O)Nc2ccc3c(c2)OCCO3)s1,1.33,98.9
CCOC(=O)Cc1csc(NC(=O)Nc2cccc(OC)c2)n1,1.36,95.8
COc1ccccc1CNC(=O)Cn1cc2c(n1)CCCC2,1.43,103
Cc1ccc(C(=O)NN2C(=O)/C(=C/c3cn(C)c4ccccc34)SC2=S)cc1,1.87,99.2
C/C(=C\C(=S)Nc1ccccc1)Nc1ccccc1,1.32,–
CCSc1nnc(-c2sc3nnc(-c4ccccc4)c(-c4ccccc4)c3c2N)o1,2.22,92.6
Cc1ccc(Cn2c(=N)n(CC(O)c3ccco3)c3ccccc32)cc1 (stereo not given),1.74,64.4
CCN(CC)CCNC(=O)c1ccc(CS(=O)(=O)c2ccc(Br)cc2)o1,1.39,99.5
O=C1Nc2ccccc2/C1=C/c1cnc(-c2ccccc2)[nH]1,7.97,98.8
Cc1nn(-c2ccccc2)c(N2CCCC2)c1/C=N/n1cnc2scc(-c3ccccc3)c2c1=O,1.1,–
Cc1ccc(NCc2nnc(SCC(=O)O)n2Cc2ccccc2)cc1Cl,1.38,–

Compound,fold increase,viability [%]
CCOc1cc(/C=C2/SC(=S)N(CC3CCCO3)C2=O)ccc1O (stereo not given),5.32,92
Cc1nc(SCC(=O)NCCc2ccc(Cl)cc2)nc(C)c1C,1.45,92.5
CC(C)OC(=O)CC(=O)CSc1nc(-c2ccc(F)cc2)cc(-c2ccccc2)c1C#N,1.33,93.5
Cc1cc(S(=O)(=O)NC2CCCCC2)c(C)s1,1.33,98.1
Nc1c(C(=O)C2CC2)sc2nc(-c3ccccc3)cc(C(F)(F)F)c12,2.29,97.5
CCOC(=O)N1CCC(NC(=O)CCCC(=O)O)CC1,1.39,99.5
CN1/C(=C\C=C(/C#N)C(=O)Nc2ccccc2F)C(C)(C)c2ccccc21,2.24,95.2
CCOc1cc(/C=C2\SC(=S)N(N3CCOCC3)C2=O)ccc1O,2.02,92.3
COc1cc(/C=C(\C#N)c2nc3ccccc3[nH]2)cc(Br)c1OCc1ccc(F)cc1,1.28,–
O=c1[nH]c(S)c(/C=C2\C=Nc3ccccc32)s1,1.46,98.8
Cc1cc(C)c[n+](-c2nc3ccccc3nc2[N-]S(=O)(=O)c2ccc(Cl)cc2)c1,1.42,102
Cc1cc(-c2n[nH]c(=S)n2/N=C/c2ccccc2[N+](=O)[O-])n[nH]1,1.44,103
O=C(COc1ccccc1-c1ccccc1)NCc1cccc(Cl)c1,1.32,–
CCN(CC)c1ccc2cc(C#N)c(=O)oc2c1,2.63,102
CN(Cc1ccccc1)C(=O)c1ccccc1NC(=O)c1ccccc1,1.49,104
CCOc1ccccc1C1CC(c2cccs2)=NN1S(C)(=O)=O (stereo not given),1.35,–
Cc1cccc(NC(=O)CN2C(=O)N/C(=C/c3ccc(C)s3)C2=O)c1,1.36,–
CCOC(=O)c1c(NC(=S)Nc2ccccc2)sc2c1CC(C)(C)SC2,2.04,91.5
N#C/C(=C/c1ccc(N2CCOCC2)o1)C(=O)Nc1ccccc1,5.34,93.8
COc1cccc(/C=N/n2c(SC)nnc2-c2ccccc2)c1O,2.62,71
O=C(Nc1ccccc1F)C(=Cc1sc(N2CCOCC2)nc1-c1ccccc1)C(=O)Nc1ccccc1F,1.57,–
Cc1cc(C(=O)NC(C)c2ccncc2)cs1 (stereo not given),1.32,93.2
N#C/C(=C\c1ccc(F)cc1)c1nc(-c2ccco2)cs1,1.35,97.6

Compound,fold increase,viability [%]
O=[N+]([O-])c1ccc(N/N=C/c2cn(Cc3ccc(F)cc3)c3ccccc23)nc1,1.76,74.2
CCOC(=O)CC(=O)CSc1nc2ccc(C)cc2cc1C#N,1.42,75.9
Cc1ccc(-c2nc(NC(=O)CSc3nnc4scc(-c5ccccc5)n34)ns2)cc1,1.34,77.3
CCN(CC)c1ccc(/C=C(\C#N)c2nc(-c3cccs3)c(NC(C)=O)s2)cc1,9.42,–
CCCCC(=O)Nc1ccc(C(=O)Nc2ccc(OC)cc2[N+](=O)[O-])cc1,1.72,99.3
CCOC(=O)/C(=C\C=C1/Sc2ccccc2N1CC)C(C)=O,7.92,93
CCCN1C(=O)/C(=C\C=C2/Sc3ccccc3N2CCO)SC1=S,2.03,86.1
CN(C)c1ccc(/C=C2\SC(=O)N(CCc3nnc(N)s3)C2=O)cc1,1.67,88.2
Cc1ccc(NC(=O)/C=C/c2ccc([N+](=O)[O-])s2)c(C)c1,5.61,14.8
COC(=O)C1(C(=O)OC)NOC2C(=O)N(c3ccccc3)C(=O)C21 (stereo not given),1.44,92.5
CCCn1c(N)c(N(CCOC)C(=O)/C=C/c2cccc(Cl)c2)c(=O)[nH]c1=O,1.38,99.9
CN(C)C=Nc1c(Br)cc(Br)c2nonc12,5.38,96.8
COc1ccc(Cl)cc1-c1n[nH]c(=S)n1C1CCCCC1,1.24,–
COc1ccc(OC)c(-n2nnnc2SCC(=O)NCc2ccc3c(c2)OCO3)c1,1.32,102
c1ccc(C[n+]2c(-c3ccccc3)csc2Nc2ccccc2)cc1,1.32,–
CCN1/C(=C\C=C(C(C)=O)C(C)=O)Sc2ccccc21,3.28,–
CCCC1=NN2C(=N)/C(=C\c3ccc(SCc4ccco4)o3)C(=O)N=C2S1,2.41,94.2
Cc1cccc(NC(=S)NNC(=O)c2cccc([N+](=O)[O-])c2)c1,1.51,97.7
COc1ccc(C2CC(c3ccccc3)=NN2c2ccc(/C=N/NC(=O)c3ccncc3)cc2)cc1 (stereo not given),1.13,–
CC(=O)/C(C#N)=C1\NC(=O)C(Cc2ccccc2)S1 (stereo not given),1.24,82.7
CCC(C)N1C(=O)/C(=C/c2c(NCCCOC(C)C)nc3c(C)cccn3c2=O)SC1=S (stereo not given),6.27,86.5
CCOC(=O)/C(=C/C=C1\Sc2cc(C)c(C)cc2N1CC)C(C)=O,5.63,80.2
CCOCCCNc1nc2c(C)cccn2c(=O)c1/C=C1\SC(=S)N(C(C)CC)C1=O (stereo not given),8.98,–

Compound,fold increase,viability [%]
CCN=C1S/C(=C\c2cc(OCC)c(O)cc2Br)C(=O)N1CC,1.55,64.4
COc1ccc(-n2c(C)cc(/C=C3\SC(=S)N(Cc4ccco4)C3=O)c2C)cc1,1.51,97.6
COc1ccc(O)c(C(=O)c2cc(C#N)c(=O)n(-c3ccc(Cl)cc3)c2)c1,2.8,87.1
CN(C)c1ccc(/C=C(\C#N)C(=O)Nc2nc3c(s2)CCN(Cc2ccccc2)C3)cc1,4.61,94.7
CCCCCCn1cnc2c(c1=O)c1nc3ccccc3nc1n2Cc1cccs1,1.16,–
CC(C)(C)C(=O)N=C1SC2CS(=O)(=O)CC2N1c1ccc2c(c1)OCO2 (stereo not given),1.34,91
O=C(CC1Nc2ccccc2NC1=O)Nc1ccccc1NC(=O)CC1Nc2ccccc2NC1=O (stereo not given),1.8,96.5
O=C(O)CCCCCN1C(=O)/C(=C\c2ccc(-c3ccc(Cl)cc3)o2)SC1=S,1.98,–
COc1ccccc1C1C([N+](=O)[O-])=CC([N+](=O)[O-])=CN1C (stereo not given),1.59,85.5
O=C(c1ccc2c(c1)OCCO2)C1CCN(C(=O)c2ccc(F)c(F)c2)CC1,1.45,80.9
O=C1NCC(c2ccccc2)C1C(=O)N/N=C\c1ccc(-c2ccc(Cl)c(Cl)c2)o1 (stereo not given),1.12,–
Cc1cc(C)cc(-n2c(N)c(C(=O)Nc3c(C)n(C)n(-c4ccccc4)c3=O)c3nc4ccccc4nc32)c1,1.4,–
O=C(O)CN1C(=O)/C(=C\c2cn(CC(=O)N3CCOCC3)c3ccccc23)SC1=S,4.5,96.3
O=[N+]([O-])c1ccc(S(=O)(=O)N2CCSC2c2ccco2)cc1 (stereo not given),1.41,101
C=CCSc1nnc(-c2c[nH]c3ccccc23)n1CCOC,1.37,93.1
O=c1c2c(ncn2C2CCCC2)n(Cc2ccccc2)c(=O)n1CCOc1ccc(Br)cc1,1.44,85.4
CCN(CC)c1ccc(/C=C2\C(=O)c3ccc(C(=O)O)cc3C2=O)cc1,1.42,96.3
CCOC(=O)/C(=C\C=C1/Sc2cc(OCC)c(OCC)cc2N1CC)C(C)=O,7.27,61.3
N#C/C(=C\c1ccc(OC(=O)c2ccccn2)cc1)C(N)=O,1.38,99.9
CC1CCN(c2ccccc2NC(=S)NC(=O)c2ccco2)CC1,1.49,88.7
CCC(O)(CC)C(=O)N/N=C/c1cc(Br)cc(Br)c1O,1.63,93.4
Cc1ccc(N2C(=O)C3C(C(=O)c4ccccc4)=NN(c4ccccc4)C3C2=O)cc1 (stereo not given),2.38,95.7
CC1=NN(c2nc(-c3ccc(C)cc3)cs2)C(=O)C1N=Nc1ccccc1O (stereo not given),4.9,–
